Data published in PMC10668032.
The list shows a part of the results. At the low end of the ranking the order means little.

These sequences were tested against SIX1 homeodomain (reference allele) (UniProt Q15475) (assay: universal protein binding microarray). Conditions: Universal all-10-mer PBM (8x60K, AMADID 030236), 300 nM GST-tagged protein, Alexa Fluor 488 anti-GST; buffer, salt, pH and temperature not stated; high values mean tight binding; most listed sequences are background and not binding sites; double strand, one strand shown.

Sequence | binding signal [E-score]
CCTTGGAA | -0.0364
CGATCACC | 0.34
AGTATACT | 0.219
CCACCTCC | 0.102
GAAAAGTC | -0.344
CCCAACAC | 0.0936
GGTCGACA | -0.0212
AGGCCGTA | 0.197
ATCATACC | 0.351
AAGGAGAG | -0.0784
CAGGGCAC | -0.12
GTTCTGTA | 0.0731
ACCGAGAC | 0.0612
GCGGTATA | 0.375
GAACAAAA | -0.0329
AAAGTAAT | -0.0423
GTGCGTTA | -0.155
ACATCGTA | 0.0956
AAAACGAC | -0.249
GAAAATTA | -0.22
TAGCCTGA | -0.113
CGGGGACG | -0.115
GAGATAGA | 0.183
ATTCGCCC | -0.153
CGGACACA | -0.0971

Sequence | binding signal [E-score]
CCTAAGAC | 0.0278
AATTGGAC | -0.128
CACCTCCC | 0.015
CAGCCGCC | -0.187
AGCTTGGC | -0.166
AAAATCGA | -0.0662
CGATAGCA | 0.206
ATAATTAT | 0.126
ATCAGTGA | 0.214
CGGGTGAA | -0.044
AACAGATG | -0.311
AGACTCAG | -0.115
AAACAGTG | -0.154
GGGAATAA | -0.0243
ATTGTACG | -0.0901
AATTATTA | -0.124
GAGAGCTA | -0.0927
CTTGCTCA | -0.0824
GCATTCAC | -0.0828
CAGTAGGG | -0.0144
ATAATTCC | -0.144
CCAAGCGG | 0.1
GAGCGAAC | -0.272
TATGGCGA | -0.0179
CAAGTTCC | -0.214

Sequence | binding signal [E-score]
AAGCATGA | 0.141
AGATAATG | 0.13
GTACGTGA | -0.056
CAATTCCA | -0.165
GAACCCGC | -0.0843
CCCAAAGA | -0.191
TAAGAAAA | -0.147
ACGAAGAA | 0.0501
AGTAGCGG | -0.0137
ATATGGGC | 0.326
CAGCCACC | 0.0229
GGAAGCTA | -0.0526
GACACCGC | 0.398
ACACCGTA | 0.344
ACGCTAGT | -0.155
GATCGAGA | 0.295
AAGATTGC | -0.163
CGACGCGC | 0.0588
CGAGCTAA | -0.0678
GGAGGTAA | -0.272
GCCCTGGA | 0.0936
GCCAACCA | -0.196
GGACAGCA | -0.204
ATCACAAT | 0.321
ACCTAGAT | 0.312

Sequence | binding signal [E-score]
ATCAGCGC | 0.136
CATTGTTC | 0.0622
ACGTTTTG | -0.303
ATCTACAT | 0.06
GCTCACAA | -0.00967
TAGCAAGA | 0.122
ACGACGCT | -0.27
CCGCCCCA | 0.258
AAGGTCCT | -0.257
GTCTATTA | -0.138
AGAATTGA | -0.1
CTGCATTA | -0.11
ATGCGCAT | 0.148
AGGAACTA | -0.134
ATATTTCG | 0.101
CTAGCAAA | 0.0609
GGTGCATA | 0.0702
AACACGGC | -0.0034
ATCGTAAA | 0.159
ACTATTAG | 0.0327
AAAGATAC | 0.365
GTACGCAC | -0.311
CGTCATTA | -0.0699
CGGGCCTA | -0.127
CGTTCAAA | -0.1

Sequence | binding signal [E-score]
AGTATACA | 0.294
AGACTGCC | -0.199
AGATAGCT | 0.178
AAACTAAA | -0.179
ACTAGCAT | -0.111
CGCCTTGA | -0.0444
ATGAAAAC | -0.119
GCAAGAAC | -0.0609
ATAGTCTC | 0.151
CTATAAAC | 0.085
GTCAGGGA | -0.122
AGTAGGAC | -0.0515
TCAGGTAA | -0.182
AGTACCTC | -0.0331
ACTATAGA | 0.0353
CTTCGAAC | -0.246
CCACCGGG | 0.0409
AGCGAGAG | -0.041
AATCAGCG | -0.0852
ACTTTTCC | -0.232
GAGGTATC | 0.477
AGCTTGAA | -0.215
ATGCCATA | 0.0949
TGGTCACA | -0.0876
GCACACCA | 0.125

Sequence | binding signal [E-score]
GCAAACAA | -0.32
AGGCGTCG | -0.152
AAGGAAAT | -0.293
ACACAGAC | -0.124
AAGTTATA | 0.029
TCAGGACA | 0.0236
AAAGTATG | -0.109
CGCATTGA | 0.154
GGCTAGGA | -0.218
AGCTTGCA | -0.187
TAGGCTGA | -0.0613
CATACCGC | 0.0555
CAGGGAAA | -0.203
ATCAGGGA | 0.209
ATTATGGA | 0.191
TCAAACAA | -0.0903
AGCCGGCT | 0.173
GACTGCAA | -0.265
ACTTAGTG | -0.161
GGACGAAC | 0.00931
CTGCCAAG | -0.158
CTAAAATA | 0.107
ATCTATAC | 0.35
ATACGGAG | 0.193
ACGATGAG | 0.0617

Sequence | binding signal [E-score]
CACTACTG | -0.018
ACCATAAA | -0.0525
GACCACCC | -0.0483
GCCTTGCC | -0.165
CTCGCGCC | -0.184
ATTAAATG | 0.061
GAGAAAGC | -0.0983
CAGACGGC | -0.0992
ACAACAGC | -0.183
CCATCGCG | 0.016
GTCCTTAA | -0.0848
CGAAAACC | -0.0724
AGCTTCTA | -0.102
TGCCAGAA | -0.0959
AAATTGAG | -0.106
GATTAAAA | 0.109
ACTGGGGG | -0.0792
AGTGCATG | 0.0879
CTGACATC | -0.0778
ACCAAACG | -0.271
TACGGAGA | 0.054
AGAGCATA | -0.0854
